The labels stand for the following.
B1: CPEB3 Ribozyme (parent)
chain: UAACAGGGGGCCACAGCAGAAGCGUUCACGUCGCAGCCCCUGUCAGAUUCUGGUGAAUCUGCGAAUUCUGCUGUAUAUCUC

The source gives no read counts; variants with many changes may rest on few reads.

Variants of B1 are the subject of this series. The experiment in a line: self-cleavage, relative activity (ratio to wild type); higher = more cleavage; in vitro, sequencing. The method, boiled down:
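For each CPEB3 ribozyme variant, relative activity is its cleaved/total read fraction divided by the unmutated ribozyme's. Barcoded error-prone PCR libraries were transcribed by T7 RNA polymerase (5 hours, 37°C) and held in DNase I for 15 min before an EDTA stop, with cleavage occurring throughout. Template-switching reverse transcription and Illumina sequencing were used to read the RNAs. A 5-read minimum applied, and results are the mean of three batches.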
A28C C38U G46A: the self-cleavage worked out at 0.06.
On to U26G A28C A45U U60C U78C, for which the self-cleavage amounted to 0.06.
As for A28C C39A U51C, the figure is 0.14; as for C27U A28G U41C G52A U54C U69A U72A, 0.06; as for U26G U31C U41C U60C A64G, 0.19.
In the case of C27U U54A A64G A65G, the self-cleavage stood at 0.15.
As to U26G A35G A56G U58C U80A, the self-cleavage was 0.45.
U26G G61C U67C: the self-cleavage is 0.13.
In the case of A28C U41C A64G, the self-cleavage is 0.24.
Consider U26C U69C C81U, for which the self-cleavage came to 0.1.
For A28G A45U A47G A65G, the self-cleavage stood at 0.14.
As for U26C U69C U76A, the self-cleavage came to 0.24.
As for A28G A35G A47G U51C U58C A77U, the figure is 1.22; as for A28G A35U A45U A47G, 0.15.
Turning to U26C U67C A75G U80C, the self-cleavage was 0.29.
Turning to A28G A45U U58C, the self-cleavage came out at 0.08.
The figure for C27U U51C U58C is 0.2.
On to A28G A56G U58C, for which the self-cleavage was 0.46.
For U26C U69C U72C U76A A77C, the self-cleavage is 0.14.
On to A28G A45C A64U, for which the self-cleavage is 0.15.
The figure for A28G A35G C37G U48C A65G is 0.13; for C27U U49C G52C it is 0.08.
In the case of A28G A45G U51C U67C, the self-cleavage was found to be 0.17.
Regarding U26C U66C U69A A75G, the self-cleavage stood at 0.06.
The figure for U26C U60A C79U is 0.35; for C27A U54C A57U U74A A75G it is 0.08; for A28C U48C A57U U67C it is 0.
Turning to C27A U43C U67A, the self-cleavage is 0.14.
The figure for A28C A56G A64G U80A is 0.17; for U26C U72A U76C it is 0.2.
Take U26G G33U U80C: the self-cleavage was 0.5.
In the case of U26G A28G A45U, the self-cleavage is 0.17.
Turning to A28G A56G U76G, the self-cleavage turned out to be 0.53.
With A28G A56G U76C, the self-cleavage amounted to 0.3.
With A28C U43A U67G, the self-cleavage was determined as 0.19.
A28G A56G G63C U72A U80A: the self-cleavage worked out at 0.33.
As for A28G A45G U54A, the figure is 0.48.
Turning to A28C C39U U54A A65G, the self-cleavage is 0.18.
On to U26G U31A U80C, for which the self-cleavage was 0.29.
Turning to A28G A47G U49A C50U U66C U80C, the self-cleavage came to 0.08.
As for A28G A56G C79U, the self-cleavage was found to be 0.84.
For C27A U49C U66C U69A, the self-cleavage turned out to be 0.11.
Regarding U26C U67A U76C, the self-cleavage is 0.26.
Take U26C U66C U69A: the self-cleavage is 0.14.
On to U26C U66C U69C, for which the self-cleavage was found to be 0.32.
As for A28G A45G A64U U72C, the figure is 0.28; as for A28G A45G A64U, 0.29.
A28G A45G A64G: the self-cleavage was determined as 0.2.
In the case of U26C U66C A77G, the self-cleavage stood at 0.2.
For the variant C27G G42A U54A U58C U69A A75U, the self-cleavage worked out at 0.08.
Turning to U26G U31C G46U U69C, the self-cleavage worked out at 0.06.
Consider U26C U69A U72C U76A C81A, for which the self-cleavage amounted to 0.08.
Consider C27A U31C A35G U54C C62U U78G, for which the self-cleavage is 0.11.
As for A28G A45U U49C U51A U69C, the figure is 0.11.
As for A28C A45G G52A A75G U78C, the self-cleavage amounted to 0.13.
On to A28G A56U A65G, for which the self-cleavage amounted to 0.12.
Take A28G A35U C44A: the self-cleavage was determined as 0.44.
With A28G A35U A45C U60A U69C, the self-cleavage stood at 0.09.
In the case of C27A U69C A75U U80A, the self-cleavage turned out to be 0.14.
U26C U60C A64U U78A: the self-cleavage stood at 0.17.
Consider C27U U43C U60C, for which the self-cleavage turned out to be 0.14.
As to A28G A35U A47U, the self-cleavage was 0.07.
For the variant A28G A35G U74A, the self-cleavage is 1.2.
As for U26G A45G U72A, the figure is 0.2; as for A28G A47U U69A, 0.39.
Turning to U26C U72A A77G, the self-cleavage was 0.6.
Take C27U U54C U60A U67A C79A: the self-cleavage came to 0.07.
As for U26G U31C U69C U80A, the figure is 0.27; as for U26G A56G A64G U80C, 0.16; as for A28C U67C U72A, 0.39.
Regarding A28C U31C C37U U69C U78C C81U, the self-cleavage was 0.06.
Turning to A28G A47G A64G, the self-cleavage is 0.41.
As for U26G A35G U41G U74C, the self-cleavage was found to be 0.05.
For the variant A28G A35U C40A U48C U66C, the self-cleavage amounted to 0.07.
With A28G A47G U60G, the self-cleavage was 0.12.
As to A28G A35G A56G A57G G61A A64U U80A, the self-cleavage came to 0.2.
With A28C U49G A64G, the self-cleavage stood at 0.11.
With U26C U69A U80C, the self-cleavage is 0.06.
As for A28G A47G U54A A64G U66C U72A, the figure is 0.08; as for C27U A28G G30A G33C C38U A57C, 0.2; as for A28G A35G C40A U54G C71U, 0.12.
A28C A35G A45G C62U: the self-cleavage was found to be 0.15.
On to A28G A35G U43G A56U, for which the self-cleavage came out at 0.13.
With U26G A45G G52U U78C, the self-cleavage turned out to be 0.17.
Take A28C C29U U31A A64U: the self-cleavage came to 0.18.
C27U C32A U60C: the self-cleavage was 0.13.
In the case of A28G A35U U58G, the self-cleavage was found to be 0.11.
The figure for A28C C34A C40U A47G U54C is 0.04; for C27U U41A A47G U69C A77C it is 0.07; for U26C U60C U67C A75U it is 0.18.
As to C27U U41C A57G, the self-cleavage came out at 0.15.
As for A28C A35G U51A A56G A65G U69A, the figure is 0.25; as for A28G A47G U76C, 0.57; as for U26C U60A U67C, 0.13.
Take C27U U41C G63A U66C U67C: the self-cleavage was 0.15.
Take C27G A35U U41C U43C A45U U69C U76A: the self-cleavage was 0.03.
In the case of C27A A47G A57G C79U U80C, the self-cleavage amounted to 0.28.
As to A28G A47U U49C, the self-cleavage came to 0.29.
The figure for A28G A45G U51A is 0.35.
Regarding C27U U41C U60A A65G U67A U69C, the self-cleavage was 0.06.
Regarding C27A A45U A47U, the self-cleavage was 0.17.
As for A28G A45G A64G U66C U72A, the figure is 0.05.
For the variant A28G A45U A77U, the self-cleavage was 0.44.
In the case of A28C U49C A75G, the self-cleavage came to 0.14.
For A28G A35G U69A, the self-cleavage is 0.56.
The figure for U26C U67G C71U is 0.16.
Consider A28G A35G C39U A45U, for which the self-cleavage was 0.51.
Consider U26C U69A A75U, for which the self-cleavage came out at 0.21.
Regarding A28G A35G C37A U43C U69C U74C, the self-cleavage was 0.
The figure for C27A A28G U41C A65G is 0.27.
For the variant A28C U67A U69C, the self-cleavage turned out to be 0.06.
With A28G A45G G46A, the self-cleavage worked out at 0.11.
As for A28C A35U A45G, the figure is 0.2; as for A28G A35U U41C A56G U66C U72C U78C, 0.04.
Regarding C27A U43C U49C A56U U69C U72C, the self-cleavage came to 0.07.
On to A28C U31A U41C G42C, for which the self-cleavage was 0.4.
Turning to A28G A35U U41A A75U, the self-cleavage is 0.16.
A28G A47G U69G: the self-cleavage came out at 0.19.
On to U26G U41C C50U, for which the self-cleavage stood at 0.08.
On to U26C U72C U74C A75G, for which the self-cleavage amounted to 0.63.
Turning to A28G A57C A65G, the self-cleavage turned out to be 0.06.
Take A28C U60C A65G U72G: the self-cleavage turned out to be 0.14.
Take C27A A28U U67G G73A U78C: the self-cleavage turned out to be 0.05.
Take C27A A35G G36A U58C U67A A75G: the self-cleavage worked out at 0.09.
For U26C U58G A64G, the self-cleavage is 0.11.
Regarding A28C U31C U58A, the self-cleavage was determined as 0.19.
Turning to A28C U51G U58A U80C, the self-cleavage was 0.16.
As for U26G U43G A45U U78C, the figure is 0.3; as for C27A G53A U69A, 0.19; as for A28G A35U C40U C59A C81U, 0.17.
On to A28G A35C U51C, for which the self-cleavage came to 0.31.
Turning to A28G A45G A47C U49C G70A A77U, the self-cleavage is 0.16.
As to A28C U54C A65G, the self-cleavage worked out at 0.11.
With A28C U43C A45G A65G, the self-cleavage was 0.08.
Turning to A28G A47G U48C U51A A56U U58C, the self-cleavage was determined as 0.18.
As to A28G A45G G46C U48C G55A U69C A77G, the self-cleavage turned out to be 0.05.
Consider U26C U58C G63C, for which the self-cleavage came to 0.2.
With U26G U58C U76A, the self-cleavage was found to be 0.11.
Turning to C27A C32A A35U U72C, the self-cleavage was 0.06.
The figure for C27U C34U A47G A64U is 0.18; for A28C U41C U76A U78A it is 0.36.
As for A28G A56U A57G, the figure is 0.14.
Consider C27U A28G A45U U72C A77G, for which the self-cleavage came to 0.13.
Turning to U26G U41C U69A, the self-cleavage was determined as 0.15.
In the case of U26G A56U U78A, the self-cleavage came to 0.18.
As for U26C U60C U66A U67A U76C A77U, the figure is 0.15; as for C27A U51G U76C U78C, 0.13; as for C27A A28C C37A U66C, 0.13.
As to A28G A35G A45G U51C U67A U72A, the self-cleavage was 0.52.
For C27U G33A G42A U43C A45G A64U U80C, the self-cleavage turned out to be 0.36.
The figure for U26C U69C A77G is 0.26; for C27U G33A A47G A56U it is 0.17.
As to C27U U54A A65G, the self-cleavage was 0.14.
As to C27U U49A U58C U72C, the self-cleavage is 0.07.
On to A28C U67C U74A, for which the self-cleavage stood at 0.35.
For A28C C29A U31A U48C A56G, the self-cleavage is 0.13.
In the case of A28C A47G U72C, the self-cleavage is 0.51.
As for C27U A64G A75G, the figure is 0.13; as for U26G A28C C32U A35G U51C C71A, 0.04; as for U26C U58G U69C U78C, 0.02.
Consider C27A A28U U31C U51C G52A U78C, for which the self-cleavage amounted to 0.05.
The figure for U26G U41C A45U is 0.08; for U26C U60C G70A it is 0.06; for C27G G63A U76G it is 0.18.
Turning to U26C U69C U78A, the self-cleavage came out at 0.23.
U26C U69C U78C: the self-cleavage amounted to 0.28.
The figure for U26C U66A U80A is 0.25.

These data come from the RNAGym collection of RNA variant scans (doi:10.1093/nar/gkz1192).
